The record followed here is article PMC6831704.

In assay [1] the target is p62, endogenous in HTLV-1 chronically infected T cells (human (endogenous in C8166, HuT102 and C91PL)) (UniProt Q13501). Nature of the assay: co-IP; lysates of HTLV-1 chronically infected C8166, HuT102 and C91PL cells immunoprecipitated with a p62-specific or Tax-specific antibody or control Ig; 50 mM Tris pH 7.4, 150 mM NaCl, 1% NP40; overnight at 4 °C; western blot. On the technique in general: Immunoblotting shows a protein as a band on a membrane.

Assay [2] has as its target IKKγ-FLAG (expressed in HeLa cells) (UniProt Q9Y6K9). In words: co-IP + pull-down; HeLa cells expressing Tax-His and/or IKKγ-FLAG; anti-FLAG M2 immunoprecipitation, elution with 3X FLAG peptide, then His-specific purification on His-select HF agarose beads; western blot.
For assay [3], the target named is FLAG-IKKγ (expressed in MEF cells) (UniProt Q9Y6K9). In words: co-IP; lysates of wild type and p62−/− MEF cells expressing Tax-His and FLAG-IKKγ immunoprecipitated with a FLAG-specific antibody; western blot.
For assay [4], the target named is Myc-tagged full-length p62 (UniProt Q13501). Nature of the assay: co-IP; lysates of p62−/− MEF cells expressing Tax-His and Myc-tagged p62 constructs immunoprecipitated with a Myc-specific antibody; western blot.
Another assay deals with MBP-p62(170-206) (UniProt Q13501). Nature of the assay: pull-down; MBP and MBP-tagged p62 proteins from E. coli immobilized on amylose resin; in vitro translated [35S]-labeled Tax; SDS-PAGE and autoradiography; only the target purified.
The target in another assay is GST-p62 (UniProt Q13501). In words: pull-down; GST and GST-tagged p62 proteins from E. coli immobilized on glutathione-coupled Sepharose beads; in vitro translated [35S]-labeled Tax; SDS-PAGE and autoradiography; only the target purified.
A further assay deals with GST-p62Δ123-170 (UniProt Q13501). The description is as above.
A further assay addresses GST-p62Δ170-256 (UniProt Q13501). The assay is described as above.
In another assay the target is GST-p62Δ256-370 (UniProt Q13501). Described as above.
In another assay the target is GST-p62Δ371-385 (UniProt Q13501). The description is as above.
The target in assay [5] is Tax-His (expressed in HeLa cells) (HTLV-1) (UniProt P03409). Nature of the assay: co-IP + pull-down; HeLa cells expressing Tax-His and/or IKKγ-FLAG; anti-FLAG M2 immunoprecipitation, elution with 3X FLAG peptide, then His-specific purification on His-select HF agarose beads; western blot.
Assay [6] addresses endogenous p62 (experiment of Supplementary Fig. S3) (UniProt Q13501). Nature of the assay: co-IP; co-immunoprecipitation of Tax (wild type or ubiquitination-defective mutants) or HBZ with endogenous p62; Supplementary Fig. S3; cells not given.

No constants are given. Whether binding was seen depends on the method and setting. Binding seen in cells or lysates may run through a third protein. Some results given as binding are weak or reduced against the parent protein; the word gives no strength.

Consider “Tax, endogenous in HTLV-1 chronically infected T cells (from UniProt P03409 1-353)”, for which the binding entry in [1] is on record as “binds”.

As to “Tax-His (expressed in HeLa cells) (from UniProt P03409 1-353)”, the binding entry in assay [2] is listed as “binds”.

“Tax-His (expressed in MEF cells) (from UniProt P03409 1-353)”: the binding entry in assay [3] and in assay [4] was “binds” each time.

With “in vitro translated 35S-labeled Tax (from UniProt P03409 1-353)”, the binding result was “binds” with MBP-p62(170-206); “binds” in the assay with GST-p62; “binds” in the assay with GST-p62Δ123-170; “no binding” with GST-p62Δ170-256; “binds” with GST-p62Δ256-370; “binds” with GST-p62Δ371-385.

Regarding “p62, endogenous in HeLa cells (from UniProt Q13501 1-440)”, the binding result in [2] and in [5] was “binds” throughout.

For the substance “wild type Tax (His-tagged; experiment of Supplementary Fig. S3) (from UniProt P03409 1-353)”, the binding result in assay [6] is reported as “binds”.
